This series in a line: label from the status in PepcDB records.
On to “MEEPGAQCAPPPPAGSETWVPQANLSSAPSQNCSAKDYIYQDSISLPWKVLLVMLLALITLATTLSNAFVIATVYRTRKLHTPANYLIASLAVTDLLVSILVMPISTMYTVTGRWTLGQVVCDFWLSSDITCCTASILHLCVIALDRYWAITDAVEYSAKRTPKRAAVMIALVWVFSISISLPPFFWRQAKAEEEVSECVVNTDHILYTVYSTVGAFYFPTLLLIALYGRIYVEARSRILKQTPNRTGKRLTRAQLITDSPGSTSSVTSINSRVPDVPSESGSPVYVNQVKVRVSDALLEKKKLMAARERKATKTLGIILGAFIVCWLPFFIISLVMPICKDACWFHLAIFDFFTWLGYLNSLINPIIYTMSNEDFKQAFHKLIRFKCTS”, for which the protein production entry is given as “failed”.

Regarding “MPFPNCSAPSTVVATAVGVLLGLECGLGLLGNAVALWTFLFRVRVWKPYAVYLLNLALADLLLAACLPFLAAFYLSLQAWHLGRVGCWALHFLLDLSRSVGMAFLAAVALDRYLRVVHPRLKVNLLSPQAALGVSGLVWLLMVALTCPGLLISEAAQNSTRCHSFYSRADGSFSIIWQEALSCLQFVLPFGLIVFCNAGIIRALQKRLREPEKQPKLQRAQALVTLVVVLFALCFLPCFLARVLMHIFQNLGSCRALCAVAHTSDVTGSLTYLHSVLNPVVYCFSSPTFRSSYRRVFHTLRGKGQAAEPPDFNPRDSYS”, the protein production result is given as “failed”.

For the sequence “MSIQKTYLEGDFVFPVSSSSFLRTLLEPQLGSALLTAMNASCCLPSVQPTLPNGSEHLQAPFFSNQSSSAFCEQVFIKPEVFLSLGIVSLLENILVILAVVRNGNLHSPMYFFLCSLAVADMLVSVSNALETIMIAIVHSDYLTFEDQFIQHMDNIFDSMICISLVASICNLLAIAVDRYVTIFYALRYHSIMTVRKALTLIVAIWVCCGVCGVVFIVYSESKMVIVCLITMFFAMMLLMGTLYVHMFLFARLHVKRIAALPPADGVAPQQHSCMKGAVTITILLGVFIFCWAPFFLHLVLIITCPTNPYCICYTAHFNTYLVLIMCNSVIDPLIYAFRSLELRNTFREILCGCNGMNLG”, the protein production result is recorded as “failed”.

In the case of “MSLPNSSCLLEDKMCEGNKTTMASPQLMPLVVVLSTICLVTVGLNLLVLYAVRSERKLHTVGNLYIVSLSVADLIVGAVVMPMNILYLLMSKWSLGRPLCLFWLSMDYVASTASIFSVFILCIDRYRSVQQPLRYLKYRTKTRASATILGAWFLSFLWVIPILGWNHFMQQTSVRREDKCETDFYDVTWFKVMTAIINFYLPTLLMLWFYAKIYKAVRQHCQHRELINRSLPSFSEIKLRPENPKGDAKKPGKESPWEVLKRKPKDAGGGSVLKSPSQTPKEMKSPVVFSQEDDREVDKLYCFPLDIEHMQAAAEGSSRDYVAVNRSHGQLKTDEQGLNTHGASEISEDQMLGDSQSFSRTDSDTTTETAPGKGKLRSGSNTGLDYIKFTWKRLRSHSRQYVSGLHMNRERKAAKQLGFIMAAFILCWIPYFIFFMVIAFCKNCCNEHLHMFTIWLGYINSTLNPLIYPLCNENFKKTFKRILHIRS”, the protein production entry was “failed”.

On to “MSLSSTVSTLYGEVEPSLLEIAKQIKLLICDVDGVFSDGLIYMGNQGEELKTFHTRDGYGVKALMNAGIEIAIITGRRSQIVENRMKALGISLIYQGQDDKVQAYYDICQKLAIAPEQTGYIGDDLIDWPVMEKVALRVCVADGHPLLAQRANYVTHIKGGHGAVREVCDLILQARNELDVHKGLSLEGHHHHHH”, for which the protein production result is on record as “not failed”.
